Our source for the binding signal (log2 normalized intensity) values is publication PMC10726135.

The other results are listed elsewhere or left out. At the low end of the ranking the order means little. Measured with an extract: partners may take part in the binding.

The assay addresses T1, HNF4alpha8 (COS-7 nuclear extract) (UniProt P41235-5).
T1 sequence: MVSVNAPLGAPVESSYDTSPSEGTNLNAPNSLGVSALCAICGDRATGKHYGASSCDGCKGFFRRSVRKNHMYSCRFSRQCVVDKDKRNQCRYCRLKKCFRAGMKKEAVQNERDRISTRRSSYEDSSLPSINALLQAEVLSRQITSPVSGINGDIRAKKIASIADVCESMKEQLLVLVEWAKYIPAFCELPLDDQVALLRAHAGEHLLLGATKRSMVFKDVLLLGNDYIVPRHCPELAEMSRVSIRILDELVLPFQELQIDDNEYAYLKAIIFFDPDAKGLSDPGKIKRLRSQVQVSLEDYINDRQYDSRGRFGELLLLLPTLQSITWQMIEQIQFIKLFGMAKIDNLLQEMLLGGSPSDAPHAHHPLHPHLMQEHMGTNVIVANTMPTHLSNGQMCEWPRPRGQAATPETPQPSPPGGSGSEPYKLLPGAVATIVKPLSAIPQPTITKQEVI
The assay is described as follows: protein-binding microarray. The settings on record: COS-7 nuclear extract on double-stranded Agilent 4x180k PBM; binding buffer, salt, pH and temperature not given; high values mean tight binding; double strand, one strand shown; sequences stand for … in …GCCTAGGGAGATTAGAGTATCGGTCGA
Take GGAGGTGACCTTTGGTTGTCCTTACTGCTA: the binding signal (log2 normalized intensity) stood at 4.22.

For TATGCTCACTGACCTCTGCCCTACTGTATA, the binding signal (log2 normalized intensity) worked out at 4.37.

For ACTGAATGTGACCTTTTGGACCACAGAGTG, the binding signal (log2 normalized intensity) was 5.97.

Regarding CCACCTAATTTAGATATCGCTCCAAGAGCC, the binding signal (log2 normalized intensity) was -1.35.

Regarding AGTCTGACTACTTCTCACCACCTCTGCTGC, the binding signal (log2 normalized intensity) was -1.27.

TTCCTATCTCTACTTGCCGAAACATTTTCT: the binding signal (log2 normalized intensity) was -1.29.

For the sequence CAGCCACCAAAGCAGCTAGCAAATACAAGG, the binding signal (log2 normalized intensity) is -1.4.

On to TTGACAGGCAACAATTTGAGGGGTCAAGAA, for which the binding signal (log2 normalized intensity) was 3.03.

With CTGACCTCTTTTGGATTTTTCCATATCTGT, the binding signal (log2 normalized intensity) amounted to 1.57.

ACATTTATTGGACTAGGCACAGGAACCTGT: the binding signal (log2 normalized intensity) is -0.578.

Turning to CCTTTGTGCTGACTAAGAGGAGAAGCAAAT, the binding signal (log2 normalized intensity) was -1.32.

Turning to TCATAGTAAATCCACTTCTGAGGAGAAGAA, the binding signal (log2 normalized intensity) is -1.32.

For the sequence TTCGGACATTCCAGGGAACAAGGGGTGGAT, the binding signal (log2 normalized intensity) is -1.13.

On to TTGTCCCTTTTCTATCCAGATGATCTTTAC, for which the binding signal (log2 normalized intensity) came out at 2.82.

GCAAGAGTCCAAATTCCTAGCCCTCTTTCA: the binding signal (log2 normalized intensity) was determined as 1.48.

Consider ATGATGAAATTTCCTCTTACCACATCTCAA, for which the binding signal (log2 normalized intensity) is -1.47.

As to TTACTTAATCCCTTGGAATGTCCTTTCCTC, the binding signal (log2 normalized intensity) was determined as 1.96.

Consider TGGACTCTGTTTTAGTTGAGTGTGACAAGA, for which the binding signal (log2 normalized intensity) came to 1.73.

Regarding TCTGACCAACGCCTCCCTCCTTCCGCGGAC, the binding signal (log2 normalized intensity) came out at 0.874.

Regarding CTCACCTGGCTTCCCTTTGATCTTTCCCTT, the binding signal (log2 normalized intensity) was determined as 1.83.

Regarding CAACCACTCTTATCAGACAGGATATTTTGA, the binding signal (log2 normalized intensity) was -0.524.

Take CTCTCCCCTCGACGCGCCGGCGCAGCCGCG: the binding signal (log2 normalized intensity) was determined as 1.24.

For GAGGCTGCTCTCTGTCCCTGCACCCTACCC, the binding signal (log2 normalized intensity) came out at 1.89.

For TTCAGCCATTTTATGACCATGAGGTGACGG, the binding signal (log2 normalized intensity) was 1.4.

For the sequence TCTTTATTTATTAACTGGAGATAACACAAC, the binding signal (log2 normalized intensity) is -0.103.

On to GTAGGCATAGGAGAAACACATAAACCCTGA, for which the binding signal (log2 normalized intensity) is -1.15.

Regarding AGCATGCTTGGAATATTTAAGGATCCAGAC, the binding signal (log2 normalized intensity) was -0.132.

Consider ACACCTGTGGGTAATTAATCTGATCGCCCT, for which the binding signal (log2 normalized intensity) was determined as 1.6.

TCTAATCAGGTCGCTGCCTGCCCCTCTGAC: the binding signal (log2 normalized intensity) was determined as 3.42.

As for CGGGTCAAGGGTTCAGGGCTCAGTTGACAT, the binding signal (log2 normalized intensity) stood at 2.42.

Consider GCTCAGGCACATTCTGCTGTGTATCACCTC, for which the binding signal (log2 normalized intensity) amounted to 0.776.

Consider AAAATATTGCCAATATCTGCCATCTACTAA, for which the binding signal (log2 normalized intensity) was -1.34.

Regarding TTATCTTGGTGCCTGCAGAGCCTCCCCATT, the binding signal (log2 normalized intensity) was determined as 2.69.

Consider TCACATCTATCTCCCTACCCTCACCCCTGC, for which the binding signal (log2 normalized intensity) came out at 3.82.

In the case of GGGAATTTCCAAAGAGCAGCTAGCTCCAGT, the binding signal (log2 normalized intensity) is -1.39.

Turning to GGTTTATGGCTTATGCATGTTTATGTGAAT, the binding signal (log2 normalized intensity) turned out to be 1.77.

Consider GAGGTTCTTGTAAGGTTCTTGTATCTGATC, for which the binding signal (log2 normalized intensity) was found to be 1.67.

For CAAATTTTGATAATTACAGAGCAAGTAGAG, the binding signal (log2 normalized intensity) was determined as 0.0555.

Consider TGTAGAGGAGATGTGGTGGACTTTAACGAC, for which the binding signal (log2 normalized intensity) was 3.25.

Regarding TAACCGAAAGTCTGACCCTTGACCAAGCAG, the binding signal (log2 normalized intensity) turned out to be 4.99.

With GCAAGGGTCAGAGTAAAGCTCCAGTCTCCT, the binding signal (log2 normalized intensity) was -1.29.

On to GTAGGCACAAAGGTGCAAAGTACATATTTA, for which the binding signal (log2 normalized intensity) is 5.19.

Turning to ATCTCCAGCTTATCTGTCCATCCCTCACTC, the binding signal (log2 normalized intensity) is -1.23.

For CTCCCAAGGTATCCTCCTAGAGTCCAAGGT, the binding signal (log2 normalized intensity) turned out to be 3.51.

As for GCTAAAAGTTGAATTCTTGACTTTGGACTT, the binding signal (log2 normalized intensity) was 6.55.

For TCATCAGCACATTGGTGAGAATGGAGGTAG, the binding signal (log2 normalized intensity) was determined as 0.426.

Regarding AAGCAACTCCTCTGTACAGCTCTTGTGCTC, the binding signal (log2 normalized intensity) was -1.23.

On to AGTTTATCTAAGATTCCCCCTACCCTCAAT, for which the binding signal (log2 normalized intensity) amounted to 4.68.

Regarding GAAGGGCAGGGCCTGGGAGATAACCCATCT, the binding signal (log2 normalized intensity) was -1.24.

Take AAACTGTTCAAGACTTTCAGCCAACGCTGA: the binding signal (log2 normalized intensity) is -1.35.

Regarding TAATTGGAAATAATGCGACTTGCCTTGTGT, the binding signal (log2 normalized intensity) worked out at 1.13.

Turning to CCAGGCTGATTTAGCTATTTGACCTTCGGC, the binding signal (log2 normalized intensity) was 5.84.

As to AAAGTATCTAAGGGCCTAGAAGAGTTCCTG, the binding signal (log2 normalized intensity) is -1.25.

For the sequence CCAGACACTGCTCTAGGCATTGGAGATATG, the binding signal (log2 normalized intensity) is -1.28.

GTGTGTAGACTCCAGGCTTGTCCTTTTGAC: the binding signal (log2 normalized intensity) was found to be 2.26.

In the case of TGTGGTTCCCAAGAAGAGCCCAGACAAGCA, the binding signal (log2 normalized intensity) is -1.23.

For GCCCTCCAAACTGAGAGATTTTTTCTTCCA, the binding signal (log2 normalized intensity) was -0.439.

In the case of TGGCTTATGCAAATGTTATGGCTGGTTTGG, the binding signal (log2 normalized intensity) came to 1.58.

Regarding GCAGATGTGTCTTTATAACAGACTGTAGGC, the binding signal (log2 normalized intensity) stood at 0.575.

Take CTGCTGAGAGAGCAGGTTGAGTATCTACCA: the binding signal (log2 normalized intensity) is -1.28.

Turning to ATGACTGCAGAGCTTGCTCTCACCAGCTTC, the binding signal (log2 normalized intensity) is -1.3.

Consider TGGTTGACATACTTCTGAGTTTTATCAGCT, for which the binding signal (log2 normalized intensity) is -1.2.

ATCAGGCTCTGGAATCTCTGGATTTCAGGT: the binding signal (log2 normalized intensity) came to 0.344.

As for TTCTCAGAAACGCCTGGCGCTTATCTGAGC, the binding signal (log2 normalized intensity) was -1.33.

Regarding CGTCGATTAGCTGGGGACCCGTCGCTGCTG, the binding signal (log2 normalized intensity) is -1.44.

On to GGGGATGAGATCTGAAGATAAATGCCTTAG, for which the binding signal (log2 normalized intensity) is -1.42.

On to AGTGCAAGGCCCAGCTAGAAGCAGTGGGAC, for which the binding signal (log2 normalized intensity) was -1.23.

As to GTGCCCTTTGAGATTTGCATTCATGATCTT, the binding signal (log2 normalized intensity) turned out to be 2.02.

Regarding GTGATCAGGTGTGGGCATTAGCAGGGAGGA, the binding signal (log2 normalized intensity) was -1.41.

For TTACTTCATAGGATTAAGTGCATACTCAAA, the binding signal (log2 normalized intensity) turned out to be 1.14.

With GAACTGGTGACCGGACACAAAAGCTGCTGC, the binding signal (log2 normalized intensity) is -1.41.

ATGGGAATTAGGGAGTAGGGACAGCTAGTC: the binding signal (log2 normalized intensity) was -1.28.

Consider GACTACTTCTCACCACCTCTGCTGCGATCA, for which the binding signal (log2 normalized intensity) is -1.41.
